# Test results published in patent US11773160 (ANAVEON, dated 2023).
# T1: trimeric IL-2 receptor on HEK-Blue IL-2 reporter cells (UniProt P01589 22-272; P14784 27-551; P31785 23-369, limits assumed)
# T1 sequence (looked up) 1: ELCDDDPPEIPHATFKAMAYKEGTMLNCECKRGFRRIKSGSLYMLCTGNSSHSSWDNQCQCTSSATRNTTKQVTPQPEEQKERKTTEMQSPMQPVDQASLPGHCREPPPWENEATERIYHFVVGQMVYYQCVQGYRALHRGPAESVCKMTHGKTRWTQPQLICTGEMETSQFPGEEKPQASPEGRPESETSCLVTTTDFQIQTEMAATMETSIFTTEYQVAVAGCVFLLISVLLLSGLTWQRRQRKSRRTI
# T1 sequence (looked up) 2: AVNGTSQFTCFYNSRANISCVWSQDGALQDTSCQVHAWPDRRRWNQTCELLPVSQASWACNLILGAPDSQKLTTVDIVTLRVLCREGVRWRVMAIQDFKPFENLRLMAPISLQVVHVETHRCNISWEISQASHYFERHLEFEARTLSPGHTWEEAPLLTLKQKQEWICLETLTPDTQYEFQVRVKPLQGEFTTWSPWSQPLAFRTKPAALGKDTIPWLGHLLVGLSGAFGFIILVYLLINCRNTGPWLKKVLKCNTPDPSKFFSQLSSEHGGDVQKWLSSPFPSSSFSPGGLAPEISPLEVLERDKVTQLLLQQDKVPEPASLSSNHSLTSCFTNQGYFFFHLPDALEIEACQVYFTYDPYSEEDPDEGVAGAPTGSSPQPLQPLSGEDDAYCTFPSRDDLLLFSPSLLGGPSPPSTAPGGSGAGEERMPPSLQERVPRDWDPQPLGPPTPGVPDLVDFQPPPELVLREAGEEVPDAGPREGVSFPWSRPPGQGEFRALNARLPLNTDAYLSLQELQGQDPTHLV
# T1 sequence (looked up) 3: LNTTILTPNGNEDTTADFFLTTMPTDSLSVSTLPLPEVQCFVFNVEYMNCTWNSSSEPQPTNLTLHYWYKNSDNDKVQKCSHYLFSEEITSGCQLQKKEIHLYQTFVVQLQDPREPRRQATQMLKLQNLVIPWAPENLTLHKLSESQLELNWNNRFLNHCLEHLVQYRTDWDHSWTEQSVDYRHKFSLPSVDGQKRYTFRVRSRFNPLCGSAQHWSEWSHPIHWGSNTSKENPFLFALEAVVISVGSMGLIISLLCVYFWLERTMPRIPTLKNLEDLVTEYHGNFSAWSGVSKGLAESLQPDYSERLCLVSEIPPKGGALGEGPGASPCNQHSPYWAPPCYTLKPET
# T2: His-tagged recombinant CD25 (human, UniProt P01589 22-213, limits assumed)
# T2 construct: Captured via TrisNTA Biotin on SA chips; also called IL-2 receptor alpha; IL-2Rα; not shown: His tag
# T2 sequence (looked up): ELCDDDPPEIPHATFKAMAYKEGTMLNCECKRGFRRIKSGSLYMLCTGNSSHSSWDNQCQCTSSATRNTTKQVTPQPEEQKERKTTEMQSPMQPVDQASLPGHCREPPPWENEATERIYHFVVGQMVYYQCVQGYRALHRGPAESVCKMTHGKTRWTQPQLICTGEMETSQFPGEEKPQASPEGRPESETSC
# T3: IL-2R on murine splenocytes (C57BL/6)
# T3 sequence (P01590 whole entry, looked up): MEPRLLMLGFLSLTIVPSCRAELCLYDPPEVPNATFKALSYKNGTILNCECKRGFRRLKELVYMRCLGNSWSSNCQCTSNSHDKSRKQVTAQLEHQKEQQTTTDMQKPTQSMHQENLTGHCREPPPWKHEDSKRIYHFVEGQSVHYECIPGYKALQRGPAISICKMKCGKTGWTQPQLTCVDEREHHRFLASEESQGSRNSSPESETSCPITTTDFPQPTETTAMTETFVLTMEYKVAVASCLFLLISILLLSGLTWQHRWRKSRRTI
# T3 sequence (P16297 whole entry, looked up): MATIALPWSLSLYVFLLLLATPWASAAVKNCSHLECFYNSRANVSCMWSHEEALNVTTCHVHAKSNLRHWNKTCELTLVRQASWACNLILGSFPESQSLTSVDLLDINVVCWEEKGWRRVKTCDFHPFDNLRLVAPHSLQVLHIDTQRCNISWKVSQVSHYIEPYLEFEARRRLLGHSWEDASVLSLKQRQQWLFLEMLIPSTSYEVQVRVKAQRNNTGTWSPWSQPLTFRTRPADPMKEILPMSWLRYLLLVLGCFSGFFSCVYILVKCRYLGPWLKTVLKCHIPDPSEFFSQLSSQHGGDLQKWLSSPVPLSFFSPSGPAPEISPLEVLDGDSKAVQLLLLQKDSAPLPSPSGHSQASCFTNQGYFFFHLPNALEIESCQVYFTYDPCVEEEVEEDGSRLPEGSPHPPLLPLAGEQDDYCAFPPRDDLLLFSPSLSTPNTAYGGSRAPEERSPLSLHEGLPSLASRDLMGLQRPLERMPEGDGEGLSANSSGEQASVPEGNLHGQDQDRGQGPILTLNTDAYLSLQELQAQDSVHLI
# T3 sequence (P34902 whole entry, looked up): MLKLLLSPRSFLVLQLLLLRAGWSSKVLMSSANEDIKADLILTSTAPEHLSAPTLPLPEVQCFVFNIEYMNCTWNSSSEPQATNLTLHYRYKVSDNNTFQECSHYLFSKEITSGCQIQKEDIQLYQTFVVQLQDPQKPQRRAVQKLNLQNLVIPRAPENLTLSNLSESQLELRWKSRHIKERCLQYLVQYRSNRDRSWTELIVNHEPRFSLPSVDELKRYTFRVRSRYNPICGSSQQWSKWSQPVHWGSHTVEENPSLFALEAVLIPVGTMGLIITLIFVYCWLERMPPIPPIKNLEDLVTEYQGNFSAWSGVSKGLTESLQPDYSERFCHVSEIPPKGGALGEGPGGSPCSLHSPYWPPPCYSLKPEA
# B1: LPT269 (other)
# heavy: EVQLVQSGAEVKKPGESLKISCKGSGYSFTNFYIHWVRQAPGQRLEWMGSIYPNYGDTAYNQKFKDRFVFSLDTSVSTAYLQISSLKAEDTAVYYCARGYSYAMDYWGQGTTVTVSS[omitted - human IgG1 constant region]
# light: DIQMTQSPSSVSASVGDRVTITCSASQGISGNFHLRPRDLISNINVIVLELKGSETTFMCEYADETATIVEFLNRWITFSQSIISTLTPTSSSTKKTQLQLEHLLLDLQMILNGINNYKNPKLTRMLTFKFYMPKKATELKHLQCLEEELKPLEEVLNLAQSKGDLNWYQQKPGKAPKLLIYHTSSLHSGVPSRFSGSGSGTDFTLTISSLQPEDFATYYCQYYSKDLLTFGGGTKLEIKRTVAAPSVFIFPPSDEQLKSGTASVVCLLNNFYPREAKVQWKVDNALQSGNSQESVTEQDSKDSTYSLSSTLTLSKADYEKHKVYACEVTHQGLSSPVTKSFNRGEC
# notes: also called IL-2 fusion protein to antibody C, linker 1 0 AA, linker 2 1 AA
# B2: GLK754 (other)
# heavy: B1 heavy
# light: DIQMTQSPSSVSASVGDRVTITCSASQGISGGGGGSGGGGSGGGNFHLRPRDLISNINVIVLELKGSETTFMCEYADETATIVEFLNRWITFSQSIISTLTPTSSSTKKTQLQLEHLLLDLQMILNGINNYKNPKLTRMLTFKFYMPKKATELKHLQCLEEELKPLEEVLNLAQSKGGGGSGGGGSGGGGDLNWYQQKPGKAPKLLIYHTSSLHSGVPSRFSGSGSGTDFTLTISSLQPEDFATYYCQYYSKDLLTFGGGTKLEIKRTVAAPSVFIFPPSDEQLKSGTASVVCLLNNFYPREAKVQWKVDNALQSGNSQESVTEQDSKDSTYSLSSTLTLSKADYEKHKVYACEVTHQGLSSPVTKSFNRGEC
# notes: Antibody-IL-2 fusion on Antibody C; also called IL-2 fusion protein to antibody C, linker 1 13 AA, linker 2 14 AA
# B3: DXM339 (other)
# heavy: B1 heavy
# light: DIQMTQSPSSVSASVGDRVTITCSASQGISGGGNFHLRPRDLISNINVIVLELKGSETTFMCEYADETATIVEFLNRWITFSQSIISTLTPTSSSTKKTQLQLEHLLLDLQMILNGINNYKNPKLTRMLTFKFYMPKKATELKHLQCLEEELKPLEEVLNLAQSKGGGDLNWYQQKPGKAPKLLIYHTSSLHSGVPSRFSGSGSGTDFTLTISSLQPEDFATYYCQYYSKDLLTFGGGTKLEIKRTVAAPSVFIFPPSDEQLKSGTASVVCLLNNFYPREAKVQWKVDNALQSGNSQESVTEQDSKDSTYSLSSTLTLSKADYEKHKVYACEVTHQGLSSPVTKSFNRGEC
# notes: Antibody-IL-2 fusion on Antibody C; also called IL-2 fusion protein to antibody C, linker 1 2 AA, linker 2 3 AA
# B4: FUE443 (other)
# heavy: B1 heavy
# light: DIQMTQSPSSVSASVGDRVTITCSASQGISGGGGNFHLRPRDLISNINVIVLELKGSETTFMCEYADETATIVEFLNRWITFSQSIISTLTPTSSSTKKTQLQLEHLLLDLQMILNGINNYKNPKLTRMLTFKFYMPKKATELKHLQCLEEELKPLEEVLNLAQSKGGGGDLNWYQQKPGKAPKLLIYHTSSLHSGVPSRFSGSGSGTDFTLTISSLQPEDFATYYCQYYSKDLLTFGGGTKLEIKRTVAAPSVFIFPPSDEQLKSGTASVVCLLNNFYPREAKVQWKVDNALQSGNSQESVTEQDSKDSTYSLSSTLTLSKADYEKHKVYACEVTHQGLSSPVTKSFNRGEC
# notes: Antibody-IL-2 fusion on Antibody C; also called FUE433; FEU443
# B5: LQM346 (other)
# heavy: B1 heavy
# light: DIQMTQSPSSVSASVGDRVTITCSASQGISGGGGGSGNFHLRPRDLISNINVIVLELKGSETTFMCEYADETATIVEFLNRWITFSQSIISTLTPTSSSTKKTQLQLEHLLLDLQMILNGINNYKNPKLTRMLTFKFYMPKKATELKHLQCLEEELKPLEEVLNLAQSKGGGGSGGDLNWYQQKPGKAPKLLIYHTSSLHSGVPSRFSGSGSGTDFTLTISSLQPEDFATYYCQYYSKDLLTFGGGTKLEIKRTVAAPSVFIFPPSDEQLKSGTASVVCLLNNFYPREAKVQWKVDNALQSGNSQESVTEQDSKDSTYSLSSTLTLSKADYEKHKVYACEVTHQGLSSPVTKSFNRGEC
# notes: Antibody-IL-2 fusion on Antibody C; also called IL-2 fusion protein to antibody C, linker 1 6 AA, linker 2 7 AA
# Molecular target: T1, trimeric IL-2 receptor on HEK-Blue IL-2 …
# Experiment: cell-based or functional assay
row,Binder,"EC50 (M), SEAP of HEK-Blue IL-2 reporter cells [M]"
1,B1,7.35e-12
2,B2,5.58e-12
3,B3,5.47e-12
4,B4,4.84e-12
5,B5,4.92e-12

# Molecular target: T2, His-tagged recombinant CD25
# Experiment: SPR (BIAcore 3000), His-tagged CD25 captured via TrisNTA Biotin on SA chip, kinetic titration of fusion protein
# Procedure: HEK-Blue™ IL-2 reporter cells (Invivogen) were incubated with a dilution series (1:3 dilutions from 0.56 nM) of antibody-IL-2 fusion protein in growth medium for 20 hours Example 4. IL-2 fusion protein in vitro selectivity Binding affinities to CD25 measured by SPR Binding affinities of the IL-2 fusion protein to the IL-2 receptor CD25 were measured by SPR (BIAcore 3000, GE Healthcare, 33-1140587-3682). His-tagged recombinant CD25 was captured via TrisNTA Biotin on SA chips and Kinetic titration of IL-2 fusion proteins of the present invention was performed reaching concentrations up to 500 nM.
row,Binder,Kd [nM]
1,B1,0.12
2,B2,0.2
3,B3,0.18
4,B4,0.16
5,B5,0.15

# Molecular target: monoclonal anti-human IL-2 antibody Nara1
# Experiment: ELISA, Nara1 coated, fusion protein titrated, anti-human IgG-Peroxidase; lowest concentration with signal at or above the cut point
row,Binder,Lowest concentration (nM) OD450-570 ≥ CP [nM]
1,B1,< 0.09
2,B2,< 0.09
3,B3,< 0.09
4,B4,< 0.09
5,B5,< 0.09

# Molecular target: T4, monoclonal anti-human IL-2 antibody 5344 (BD, 555051)
# T4 construct: Coated capture antibody
# Experiment: sandwich ELISA, 5344 coated, fusion protein titrated, anti-human IgG-Peroxidase
# Procedure: The antibody-IL-2 fusion proteins were tested on a sandwich ELISA, to assess the correct folding of the IL-2 portion. […] The obtained signals (Absorbance 450-570 nm) were plotted as function of antibody-IL-2 fusion protein concentration (as log value). The $EC50$ values were interpolated fitting the data with GraphPad Prism 8 (Table 6).
row,Binder,EC50 [nM]
1,B1,0.24
2,B2,0.28
3,B3,0.28
4,B4,0.54
5,B5,0.28

# Molecular target: T3, IL-2R on murine splenocytes (C57BL/6)
# Experiment: cell-based or functional assay
Binder,"EC50 CD8 cells (nM), pSTAT5 MFI [nM]","EC50 NK cells (nM), pSTAT5 MFI [nM]","EC50 Treg cells (nM), pSTAT5 MFI [nM]"
B1,32,1.7,< 0.016
B2,70.5,2.5,< 0.016
B3,18.6,1.3,< 0.016
B4,15.7,1.2,< 0.016
B5,25.4,1.8,< 0.016
